The campaign covered roughly 310,000 compounds. About 14,000 (4.5%) showed an effect of 50% or more. Effects have a minus sign here. The list shows a part of the results.
These molecules were tested against human ether-à-go-go-related gene (hERG) potassium channel (human, UniProt Q12809) (assay: primary screen, population patch clamp on CHO cells stably expressing hERG).
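Also: peak tail current of the secondary pulse compared with the same well before compound.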

human ether-à-go-go-related gene (hERG) potassium channel, sequence (Q12809 whole entry, looked up): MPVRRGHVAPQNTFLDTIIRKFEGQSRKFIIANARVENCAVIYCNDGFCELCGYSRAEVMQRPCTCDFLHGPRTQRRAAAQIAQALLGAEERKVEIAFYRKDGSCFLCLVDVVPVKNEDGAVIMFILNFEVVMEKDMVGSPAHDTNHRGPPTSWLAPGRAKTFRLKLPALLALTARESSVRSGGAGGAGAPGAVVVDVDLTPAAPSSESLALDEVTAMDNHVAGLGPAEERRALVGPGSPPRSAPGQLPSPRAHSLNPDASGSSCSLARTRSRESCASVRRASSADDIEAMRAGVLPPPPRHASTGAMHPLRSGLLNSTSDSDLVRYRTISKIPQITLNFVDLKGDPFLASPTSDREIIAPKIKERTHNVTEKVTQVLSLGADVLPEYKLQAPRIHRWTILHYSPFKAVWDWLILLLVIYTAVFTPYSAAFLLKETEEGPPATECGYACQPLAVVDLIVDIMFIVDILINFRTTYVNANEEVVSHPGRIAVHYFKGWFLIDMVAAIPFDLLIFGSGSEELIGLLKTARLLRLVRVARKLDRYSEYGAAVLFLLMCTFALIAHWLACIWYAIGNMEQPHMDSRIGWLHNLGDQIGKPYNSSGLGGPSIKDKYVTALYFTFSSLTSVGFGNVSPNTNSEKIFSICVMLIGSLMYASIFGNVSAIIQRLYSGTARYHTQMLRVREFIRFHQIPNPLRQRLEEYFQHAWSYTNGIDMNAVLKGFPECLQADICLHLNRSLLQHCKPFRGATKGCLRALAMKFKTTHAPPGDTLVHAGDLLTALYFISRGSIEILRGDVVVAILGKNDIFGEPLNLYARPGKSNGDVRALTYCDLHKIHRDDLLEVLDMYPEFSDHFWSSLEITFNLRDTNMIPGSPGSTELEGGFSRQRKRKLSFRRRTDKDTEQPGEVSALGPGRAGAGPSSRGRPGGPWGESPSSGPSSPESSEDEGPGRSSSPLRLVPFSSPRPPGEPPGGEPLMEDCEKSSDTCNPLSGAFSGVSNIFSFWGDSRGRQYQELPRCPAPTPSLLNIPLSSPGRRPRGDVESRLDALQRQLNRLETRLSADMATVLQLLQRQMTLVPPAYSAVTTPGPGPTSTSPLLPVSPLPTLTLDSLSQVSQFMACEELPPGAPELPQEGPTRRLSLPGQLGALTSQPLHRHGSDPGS

In order of falling “hERG current change (%, negative = inhibition) at 10uM” value:
1. COc1ccc(N2C(=O)c3ccccc3NC2c2ccc(NC(C)=O)cc2)c(OC)c1 (stereo not shown)  18.8%
2. O=C(CSc1nc(N2CCOCC2)nc(N2CCOCC2)n1)Nc1cccc(C(F)(F)F)c1  16.5%
3. Cc1ccc(C)c(NC(=O)CN(C)C(=O)c2sccc2C)c1  16%
4. COc1ccc(O)c(/C=N/n2c(-c3ccco3)csc2=Nc2cccnc2)c1  15.9%
5. O=[N+]([O-])c1cccc(C(=S)N2CCCC2)c1  15.6%
6. CNCCOc1nc(N2CCOCC2)nc(C)c1[N+](=O)[O-]  13.9%
7. COc1ccc2[nH]c(=O)c(C(c3nnnn3CC3CCCO3)N3CCCCC3)cc2c1 (stereo not shown)  13.6%
8. Cc1c(C(=O)NC2CCCCC2C)oc2ccccc12 (stereo not shown)  13.4%
9. Cc1c(C(=O)NN)sc(=S)n1C  13.2%
10. O=C(CSc1nc2ccccc2s1)NC1CCS(=O)(=O)C1 (stereo not shown)  12.9%
11. COc1ccc(NC(=O)/C(C#N)=C/c2c(C)nn(-c3ccc(F)cc3)c2Cl)cc1OC  12.1%
12. CCOC(=O)c1c(/N=C/C2C(=O)CCCC2=O)sc2c1CCCC2  11.1%
13. CCOC(=O)c1c(C)[nH]c(C(=O)Nc2ccc(C)c(Cl)c2)c1C  10.8%
14. Cc1ccc(N2C(=O)c3ccccc3C(C)(C)C2=O)cc1  9.5%
15. COC(=O)c1ccc2c(c1)SC1=C(CCCC1=O)N2  7.74%
16. COc1ccc(S(=O)(=O)N2CCN(C)CC2)cc1C  7.28%
17. COc1ccc(CCn2c(C)nc3ccccc3c2=O)cc1OC  5.91%
18. CCOC(=O)N1CCN(C(=O)Nc2ccc3nc(C)sc3c2)CC1  4.07%
19. CC1(COS(N)(=O)=O)CCCCC1  1.76%
20. COCCNc1nnc(SCC(=O)NC(=O)c2ccccc2OC)s1  1.75%
21. CCOC(=O)CSc1ncnc2c1nnn2-c1ccc(F)cc1  1.59%
22. CCOc1ccc(S(=O)(=O)NCCC(=O)NC2=NCCS2)cc1  0.345%
23. COc1ccc2oc(=O)c(C(=O)N3CCN(c4ccccc4C)CC3)cc2c1  -0.135%
24. C=CCNC(=O)NC(=O)COC(=O)CCCSc1nc2ccccc2[nH]1  -0.419%
25. COc1cc2nc(=S)n3[nH]c(COc4ccccc4C)nc3c2cc1OC  -0.537%
26. O=c1cc(CN2CCC3(CC2)OCCO3)c2c(ccc3ccccc32)o1  -0.583%
27. CCc1nn(CC(=O)N2CCN(c3ccc(F)cc3)CC2)c(=O)c2cc3occc3n12  -0.597%
28. COc1ccc(C2CC(=O)c3sc(NC(C)=O)nc3C2)cc1 (stereo not shown)  -1.49%
29. Cc1ccc(S(=O)(=O)N2CCCC2CNC(=O)C(=O)Nc2ccccc2)cc1 (stereo not shown)  -1.63%
30. O=C1CN(C(=O)COc2ccccc2)CCN1  -1.73%
31. O=C(CNCc1ccc(Cl)cc1)Nc1ccc(C(=O)N2CCCCCC2)cc1.O=C(O)C(=O)O  -2.06%
32. CCC(CO)NS(=O)(=O)c1cc(-c2nn(C)c(=O)c3ccccc23)ccc1C (stereo not shown)  -3.69%
33. COc1ccc(S(=O)(=O)N2CCC(C(=O)NCc3ccncc3)CC2)cc1  -8.83%
34. O=C(COC(=O)c1ccc(OC(F)F)cc1)Nc1cccc(S(=O)(=O)NC2=NCCC2)c1  -11.2%
35. S=C(NC1CC1)SCc1ccco1  -11.5%
36. O=C(NCc1cccs1)C1CCCN1C(=O)Nc1ccccc1Cl (stereo not shown)  -13%
37. Cc1cccc(N(C(=O)c2snc(C(N)=O)c2N)C(C(=O)NCC2CCCO2)c2ccc3ncccc3c2)c1 (stereo not shown)  -19.4%
38. O=C(Nc1ccc2cn[nH]c2c1)c1ccc(S(=O)(=O)N2CCOCC2)cc1  -19.7%
39. COc1ccc(CNC2CCCc3ccccc32)cc1OC.O=C(O)C(=O)O (stereo not shown)  -25.3%
40. S=c1[nH]nc(-c2ccco2)n1/N=C/c1ccc(Cl)cc1Cl  -45.5%
41. CCCN1CCN(CCCNC(=O)Cn2ncc3c4ccccc4n(C)c3c2=O)CC1  -56.6%
42. CCOc1ccccc1NC(=O)CSc1ccc2nnc(-c3cccnc3)n2n1  -61.9%
43. O=C(O)/C=C\C(=O)O.c1ccc(C(OCCN2CCN(c3ncccn3)CC2)c2ccccc2)cc1  -65.9%

— article PMC4336329 (PLoS ONE, 2015)
